Test results published in PubChem BioAssay AID1347073 (National Center for Advancing Translational Sciences (NCATS), 2019).
In all, about 45,000 compounds went through this assay and about 200 (0.44%) were called active. Roughly 7% stayed inconclusive and do not appear here. Calls follow the shape of the dose curve; as a rule, active = well fitted activation curve with a large enough effect; inconclusive = small, poorly fitted or top-dose-only effect; inactive = no such curve, though single readings can be large or run the other way. The list shows a part of the results.

Experiment: qHTS of TDP-43 Inhibitors: NCGC Sytravon Library Screen; also: 0% is about no effect; nearly all actives have a fitted effect of over 55% in size
Conditions: yeast TDP-43 toxicity rescue, BacTiter-Glo growth, 24 h; series mostly up to 46.1 µM; growth rescue (activation): at the top concentration
In short: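 TDP-43-expressing yeast, pregrown in raffinose, seeded at OD600 0.02 in galactose medium with compound for 24 hr at 30 deg C. Growth read by BacTiter-Glo luminescence, so rescue of toxicity appears as activation.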

SMILES	growth rescue (activation)
CC(C(=O)Nc1ccccc1-c1ccccc1)N1CCN(C(=O)c2ccccc2)CC1 (stereo not given)	inactive: -10.1%
O=[N+]([O-])c1ccc(O)c(/C=N/Nc2ccc(Cl)nn2)c1	inactive: 2.43%
O=C(COC(=O)c1n[nH]c2ccccc12)NC(=O)NC1CCCC1	inactive: 5.49%
Cc1c(/C=N/NC(=O)c2cc(Br)ccc2O)c(=O)n(C)c(=O)n1C	inactive: -1.95%
CC1=C(C(=O)N2CCN(c3cccc(C)c3C)CC2)C2(CCCCC2)OC1=O	inactive: 22.5%
CCOC(=O)c1[nH]c(C)c(/C(O)=C2\C(=O)C(=O)N(CCN(C)C)C2c2ccncc2)c1C (stereo not given)	inactive: -13.5%
CCOc1cc2c(cc1OCC)C(c1ccc(C(=O)O)cc1)NCC2 (stereo not given)	inactive: 4.48%
COc1cccc(CN2CCNC(=O)C2CC(=O)NCc2cc(C(C)C)no2)c1 (stereo not given)	inactive: 15.7%
O=C(NC(Cc1ccccc1)C(=O)OCC(=O)N1CCc2ccccc21)c1ccco1 (stereo not given)	inactive: 21%
Cc1cc(C(=O)OCC(=O)Nc2ccc(F)cc2[N+](=O)[O-])c2ccccc2n1	inactive: 9.63%
O=C(NCc1ccccc1Cl)C1CCN(S(=O)(=O)c2ccc(F)cc2)CC1	inactive: 7.26%
O=c1c(C=NCc2cccnc2)c(C(F)(F)F)[nH]n1-c1nc2ccccc2s1	inactive: -12.6%
Cc1cccc(CN2CCC(CNC(=O)CSc3cc(=O)n(C)c4cc(Cl)ccc34)CC2)c1	inactive: 4.96%
CCOc1ccc(N(CC(=O)NC2CCCC2)S(=O)(=O)c2ccccc2)cc1	inactive: 22.9%
COc1ccc(C)cc1Nc1nc(C)nc2sc(C)cc12	inactive: 14.4%
COc1ccc(-n2cccc2C=O)cc1	inactive: 15.2%
CC1CCCN(S(=O)(=O)c2ccc(S(=O)(=O)N3CCCC3)cc2)C1 (stereo not given)	inactive: 11.2%
Cc1ccc(C2Nc3ccccc3NC3=C2C(=O)CC(C)(C)C3)c(O)c1 (stereo not given)	inactive: 1.72%
CC(=O)c1ccc(NC(=O)C(C)OC(=O)c2ccc(NS(=O)(=O)c3ccc(F)c(F)c3)cc2)cc1 (stereo not given)	inactive: 14.4%
O=C(O)COc1ccccc1/C=N/NC(=O)CN1CCN(S(=O)(=O)c2ccc(Br)cc2)CC1	inactive: 22.4%
CC(C)(C)C(=O)Nc1nnc(CC(=O)NCc2ccccc2)s1	inactive: -5.45%
CCNc1ccccc1CP(=O)(c1ccccc1)c1ccccc1O (stereo not given)	inactive: -22.9%
CS(=O)(=O)N(CC(=O)N/N=C/c1ccccc1C(=O)O)c1cccc(Cl)c1Cl	inactive: -8.47%
CN(C)c1cnn(-c2ccccc2)c(=O)c1Cl	inactive: 14.3%
Cc1cc(C(=O)NCC(=O)Nc2ccc(F)c(F)c2)c(C)o1	inactive: 28.2%
Cc1ccc(/C=C2/SC(=S)N(CCCC(=O)Nc3ccc(O)cc3)C2=O)cc1	inactive: 18.2%
Cc1ccc(C(=O)Oc2ccc(N3C(=O)CCC3=O)c(C)c2)cc1	inactive: -0.161%

SMILES	growth rescue (activation)
O=C(/C=C/c1ccco1)Nc1ccc(N2CCCC2)cc1	inactive: 3.07%
Cc1cc(C(=O)NP(=O)(N2CC(C)OC(C)C2)N2CC(C)OC(C)C2)c(C)n1C1CC1 (stereo not given)	inactive: 7.4%
CC(=O)c1ccc(N(CC(=O)NC2CCCC2)C(=O)c2ccc(C)s2)cc1	inactive: 2.93%
Cc1c(NC(=O)C(C)OC(=O)c2sc3ccccc3c2Cl)c(=O)n(-c2ccccc2)n1C (stereo not given)	inactive: 0.669%
CC(C)(C)N(Cc1ccccc1)C(=O)COC(=O)c1ccc(N2CCCC2=O)cc1	inactive: -20.2%
O=C1COCCOCCOCC(=O)NCCN1	inactive: -5.91%
CS(=O)(=O)Cc1ccc(C(=O)NC2CCCc3ccccc32)cc1 (stereo not given)	inactive: 0.463%
Clc1cccc(-c2ccc(C=Nc3ccc(N4CCOCC4)cc3)o2)c1Cl	inactive: 10.6%
CN(C)c1ccc(/C=N/NC(=O)c2ccccc2Cl)cc1	inactive: -3.75%
CC(Nc1ccc2c(c1)OCCO2)C(=O)N1CCc2ccccc21 (stereo not given)	inactive: 18.7%
O=C1/C(=C/c2cccs2)SC(=S)N1c1cccc(O)c1	inactive: 14.5%
O=C(O)c1ccc(/C=N/Nc2ccc(Cl)nn2)cc1	inactive: 7.12%
CC(C)C(C)NC(=O)COc1ncnc2sccc12 (stereo not given)	inactive: 8.69%
CC1CCCC(NC(=O)CCn2c(=S)oc3ccccc32)C1C (stereo not given)	inactive: 4.06%
CC(=O)c1ccc(S(=O)(=O)N2CCC(c3nc4ccccc4[nH]3)CC2)cc1	inactive: 14.3%
CCCCNC(=O)N1CCN(C(=O)c2ccco2)CC1	inactive: 2.34%
COc1cc(N2CCCC2)c(OC)cc1C=O	inactive: 19.7%
COc1ccc(CNS(=O)(=O)NCc2ccccc2)cc1OC	inactive: -0.802%
COc1ccccc1C(=O)OCc1cc(=O)n2ccsc2n1	inactive: 20%
COc1cccc(CNC(=O)C(Cc2ccccc2)n2cccc2)c1 (stereo not given)	inactive: 4.12%
Cc1ccc(SCC(=O)NNC(=O)c2cncc(Br)c2)cc1	inactive: 7.28%
CC(=O)Nc1ccc(S(=O)(=O)N(C)CC(=O)NC2CCCCCCC2)cc1	inactive: -7.74%
OC[C@@H]1CN(Cc2ccco2)C[C@H](n2cnc3c(NC4CCC4)ncnc32)O1	inactive: 1.57%
O=C(Nc1ccccc1)c1cc(C2CCCN(C(=O)c3ccc4c(c3)CCO4)C2)on1 (stereo not given)	inactive: 11.4%
NS(=O)(=O)c1ccc(N/N=C/c2ccncc2)cc1	inactive: 17.7%
O=c1[nH]c2cc3c(cc2cc1CN(Cc1ccco1)C(=S)NCC1CCCO1)OCCO3 (stereo not given)	inactive: 10.8%
CN(C)Cc1csc(NC(=O)Nc2cccc(Cl)c2)n1	inactive: -10.7%

SMILES	growth rescue (activation)
CN(C)c1ccc(/C=N/n2c(C3CCCCC3)n[nH]c2=S)cc1	inactive: -12.4%
CCOC(=O)c1oc2c(c1C)-c1nn(Cc3ccccc3Cl)cc1CC2	inactive: -0.758%
Cc1ncc(CO)c2cc(-c3nnc(Nc4ccc5c(c4)OCO5)s3)c(=O)oc12	inactive: 25.2%
CN(C)CCNC(=O)/C(=C/c1ccc(-c2cccc(Cl)c2)o1)NC(=O)c1ccccc1	inactive: -6.59%
CC/C(=N\NC(=O)Nc1nonc1N)c1ccc(OC)c(OC)c1	inactive: 7.86%
CCCCc1ccc(S(=O)(=O)NNC(=S)NCc2ccco2)cc1	inactive: 14.5%
Nc1ccc(-c2nnn(Cc3ccccc3)n2)cc1	inactive: 9.36%
O=C(NCc1ccccc1)C(c1ccco1)N(C(=O)c1csnn1)C1CC1 (stereo not given)	inactive: 12.2%
CN(CC(=O)NCc1ccccn1)S(=O)(=O)c1ccc(Br)cc1	inactive: 8.94%
Cc1ccc(NC(=O)Cn2c(=O)n(CCC(=O)NCc3ccc4c(c3)OCO4)c(=O)c3sccc32)c(C)c1	inactive: 8.75%
CCOc1ccc(S(=O)(=O)N(C)c2ccc(OCC(=O)NCc3ccc(C(=O)OC)cc3)cc2)cc1	inactive: 17.1%
Cc1nnc(SCc2cccc([N+](=O)[O-])c2)o1	inactive: 5.43%
NC(=O)c1ccc(NC(=O)Cc2csc(-c3ccccc3)n2)cc1	inactive: 8.25%
Cc1cccc(C(=O)OC2CCOC2=O)c1C (stereo not given)	inactive: -14%
CCC1=[N+](C)c2cccc3cccc(c23)N1C	inactive: 3.57%
CN(CC(=O)Nc1ccc2c(c1)OCO2)S(=O)(=O)c1ccc2c(c1)CCC(=O)N2	inactive: 13.5%
CCc1cccc(NC(=O)CCNC(=O)Cn2ccc3ccccc3c2=O)c1	inactive: 7.31%
CCn1c(SCC(=O)Nc2ccccc2F)nnc1-c1ccoc1C	inactive: 11.6%
Cc1c(NC(=O)COC(=O)c2cc(-c3ccc(-c4ccccc4)cc3)nc3ccccc23)c(=O)n(-c2ccccc2)n1C	inactive: 31.3%
COc1ccc(C(=O)NNC(=O)CSc2nc(C(C)C)nc3ccccc23)cc1	inactive: -0.026%
CC1CCCCN1C(=O)COC(=O)Cc1c[nH]c2ccccc12 (stereo not given)	inactive: -4.66%
CCCCOC(=O)c1ccc(NC(=O)C(=O)NCc2cccnc2)cc1	inactive: 0.117%
CCOC(=O)C1=C(C)C2C3C(=O)N(c4ccc(C)cc4C)C(=O)C3C1(C)C1C(=O)N(c3ccc(C)cc3C)C(=O)C21 (stereo not given)	inactive: 3.68%
CCCOc1ccc(/C=N/NC(=S)Nc2ccccc2[N+](=O)[O-])c(O)c1	inactive: 26.6%
CC(=O)Nc1ccc(NC(=O)C(C)Sc2nnc(-c3ccc4c(c3)OCO4)o2)cc1 (stereo not given)	inactive: 8.31%
O=C(NC(=S)Nc1cccnc1)c1cccc(Br)c1	inactive: 20.7%
COc1ccccc1N(Cc1cc(=O)[nH]c2ccccc12)C(=O)c1ccc([N+](=O)[O-])cc1	inactive: 4.74%

SMILES	growth rescue (activation)
O=C(CSc1ccccc1)Nc1ccc(C(=O)Nc2ccc(O)cc2)cc1	inactive: 0.211%
Cc1c(Cl)c([N+](=O)[O-])nn1CCCC(=O)Nc1cccc(O)c1	inactive: 6.23%
CCN(CC)CCNC(=O)Cn1cnc2sc(C)c(S(=O)(=O)N3CC(C)CC(C)C3)c2c1=O (stereo not given)	inactive: 12.2%
Nc1nc2ncc(C(=O)c3cc(Cl)cc(Cl)c3O)cc2s1	inactive: 14.7%
COc1ccc(N2CC(C(=O)N/N=C/c3cc([N+](=O)[O-])ccc3O)CC2=O)cc1 (stereo not given)	inactive: 9.67%
O=C(N/N=C/C=C/c1ccco1)c1ccncc1	inactive: 7.58%
Cc1ccc(Oc2nccc(-c3ccc(Cl)cc3)n2)cc1	inactive: 27.4%
COC(=O)C(NC(=O)C(NC(=O)C1CCC(C)CC1)C(C)C)C(C)C (stereo not given)	inactive: 22.7%
CCCc1ncc(C(O)(c2ccccc2)c2ccccc2)n1C	inactive: 0.986%
O=c1cc(-c2ccccc2)nc(SCCOc2ccccc2Cl)[nH]1	inactive: -9.43%
O=c1[nH]c(CN2CCOCC2)nc2cc(Cl)ccc12	inactive: 8.4%
Cc1ccc(S(=O)(=O)N(C)C)cc1NC(=O)C(C)OC(=O)/C=C/c1cccs1 (stereo not given)	inactive: 25.2%
COc1ccc(Cl)cc1-c1cc(C(=O)NCc2cc(C(F)(F)F)cc(C(F)(F)F)c2)[nH]n1	inactive: 10.1%
COc1ccccc1OCc1csc(N)n1	inactive: -12.1%
CC1(C(=O)NCc2cccs2)CCN1C(=O)Cc1ccc(Cl)cc1Cl (stereo not given)	inactive: 6.98%
Cc1ccsc1CN(C(=O)c1oc2ccc(Br)cc2c1C)C1CCS(=O)(=O)C1 (stereo not given)	inactive: 15.1%
Cn1c(=O)c2c(nc(NCCOc3ccc(C(C)(C)C)cc3)n2C)n(C)c1=O	inactive: 4.21%
O=C(CSc1nnc(NC(=O)C2CC2)s1)Nc1ccccc1	inactive: -3.99%
CCOc1cc(N2CCOCC2)c(OCC)cc1NC(=O)c1cnccn1	inactive: 8.09%
CCCCC(=O)NS(=O)(=O)c1ccc(N=NN(CC)CC)cc1	inactive: 9.66%
CC1(Cc2cc(Cl)ccc2C(F)(F)F)C(=O)Nc2cc(-c3ccccc3Cl)ccc21 (stereo not given)	inactive: 6.19%
O=C(Cc1ccccc1[N+](=O)[O-])NCc1ccc2c(c1)OCO2	inactive: 23.9%
COc1ccccc1-c1cnc(C(O)c2ccc(Cl)c(F)c2)[nH]1 (stereo not given)	inactive: 8.18%
Cc1cccc(NC(=O)CN2C(=O)N/C(=C\c3ccccc3OCc3ccc(C(=O)O)cc3)C2=O)c1	inactive: 11.1%
